The other results are listed elsewhere or left out. The energies were worked out here from pooled read counts, against the library average; single values are noisy.
target: T1, Pho4 (S. cerevisiae) (UniProt P07270); test: relative binding free energy (BET-seq); higher = weaker binding; conditions: reference: library average
T1 sequence: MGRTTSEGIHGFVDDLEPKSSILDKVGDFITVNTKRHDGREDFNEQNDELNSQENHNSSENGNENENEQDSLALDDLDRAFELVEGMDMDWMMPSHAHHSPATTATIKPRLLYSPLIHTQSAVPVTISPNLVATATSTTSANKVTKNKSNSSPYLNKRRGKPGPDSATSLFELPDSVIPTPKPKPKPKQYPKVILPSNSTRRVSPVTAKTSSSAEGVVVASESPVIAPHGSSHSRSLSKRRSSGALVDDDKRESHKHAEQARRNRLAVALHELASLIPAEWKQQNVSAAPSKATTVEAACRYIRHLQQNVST

Relative binding free energy, 0.37 kcal/mol:
AGAATCACGTGAGGGA

Relative binding free energy, 0 kcal/mol:
CGCGGCACGTGTTTAG, AAATGCACGTGGTGAT, TGTAACACGTGTAGAG, AATAGCACGTGTTGTC, TATTGCACGTGGATGT, GTAAGCACGTGTTAAT, TGCGACACGTGGGCGA, CGTATCACGTGGGGAA

Relative binding free energy, -0.24 kcal/mol:
TTGGGCACGTGGGGCA

Relative binding free energy, 0.05 kcal/mol:
GGAGTCACGTGCTCGG, TACATCACGTGTGGTG, GGGGTCACGTGTGCGC, ATTTTCACGTGTATCA, TGGCCCACGTGTTGTA, TTGGTCACGTGGGTTG, TTTTACACGTGGTCGT, GGTTGCACGTGCGTCG

Relative binding free energy, 0.34 kcal/mol:
GTGTACACGTGATGTC

Relative binding free energy, 0.46 kcal/mol:
AAATTCACGTGAGGTG

Relative binding free energy, -0.15 kcal/mol:
ACTTGCACGTGGGATG, GGCGCCACGTGGCAGG, TGAAGCACGTGGGAGT

Relative binding free energy, -0.11 kcal/mol:
TTGGGCACGTGTGCTG, TAGCGCACGTGGTTGT, CGTTGCACGTGGGTTT, TATAGCACGTGTCGTA, TGTGGCACGTGGCGGG, ATATACACGTGGGGGC

Relative binding free energy, 0.25 kcal/mol:
TGATTCACGTGAGCGT, GGGATCACGTGTTCTT, TTTTACACGTGTAGAC

Relative binding free energy, -0.14 kcal/mol:
CGTAGCACGTGCAGGT, TGACGCACGTGTGTTG

Relative binding free energy, 0.09 kcal/mol:
ATGTACACGTGTTGCG, TTTCACACGTGGATGG, AGGAACACGTGCGTGT, TCGGTCACGTGCAGGG, CTTGTCACGTGCTGTT, AATGTCACGTGTGTGA, TTTGTCACGTGCATTC, TGCGGCACGTGAGGCG

Relative binding free energy, 0.16 kcal/mol:
GTTGTCACGTGTAGCA, ATATTCACGTGTGTTC, ATGAACACGTGTGGAT, CGTGTCACGTGGGATT, TAAATCACGTGTTTAG, TTCGTCACGTGTTAGT

Relative binding free energy, -0.03 kcal/mol:
TGTATCACGTGCGCGG, GGTGGCACGTGGTTGG, CTTATCACGTGGGGGT, AGCGACACGTGGGAAG, CTTGCCACGTGGTCGG, AGCAGCACGTGGGGAA, GTGTGCACGTGTTAGA

Relative binding free energy, 0.03 kcal/mol:
GTTAACACGTGTGGGA, CTTTCCACGTGTTTTG, GGATGCACGTGCATTG, GTTGCCACGTGTGGCG, TATTACACGTGGTTGT, TGTAGCACGTGCAATT

Relative binding free energy, -0.22 kcal/mol:
TGCGCCACGTGGGGTA, CTGTGCACGTGGGCAT

Relative binding free energy, 0.14 kcal/mol:
TATTTCACGTGGGAAG, GTGTCCACGTGATGGT, TATCTCACGTGGTCGT, TATTTCACGTGCTGTG, TAGGTCACGTGTTTGA, TAAGTCACGTGATTAG, GATATCACGTGGGCGT

Relative binding free energy, 0.28 kcal/mol:
TTATTCACGTGATTAT

Relative binding free energy, 0.31 kcal/mol:
GCGCTCACGTGTTTGT

Relative binding free energy, 0.42 kcal/mol:
TACTTCACGTGAGGGG

Relative binding free energy, 0.21 kcal/mol:
GAAGTCACGTGTGATT, GTTTACACGTGATTGC

Relative binding free energy, 0.24 kcal/mol:
GTACTCACGTGGTGAG, TTCATCACGTGAAGTG, ATTTTCACGTGGAGGT

Relative binding free energy, 0.36 kcal/mol:
TTGGTCACGTGAGATG, AGGGTCACGTGAATGA, ACTTTCACGTGAGGTG, GGGGTCACGTGATCGT

Relative binding free energy, 0.23 kcal/mol:
GAATTCACGTGGGGGG, TTCTTCACGTGCTTTG

Relative binding free energy, 0.5 kcal/mol:
TCTATCACGTGAGATG

Relative binding free energy, -0.18 kcal/mol:
TAAGGCACGTGGCGGG, CGTGGCACGTGGGGAG, AGTCGCACGTGGCTTG

Relative binding free energy, -0.26 kcal/mol:
AGCCGCACGTGGGGCG, TCGACCACGTGGGGTG

Relative binding free energy, -0.17 kcal/mol:
AGTGCCACGTGGTAGG, GTATGCACGTGCGGGC

Relative binding free energy, 0.3 kcal/mol:
TGGGGCACGTGAAAAG, GTCCTCACGTGTTTGT

Relative binding free energy, -0.28 kcal/mol:
GGTAGCACGTGGGCGG

Relative binding free energy, 0.15 kcal/mol:
GAGGACACGTGTGTTT, GTGATCACGTGGAGAA, TGTATCACGTGTTACT, TGAATCACGTGGAGGG, TCGGTCACGTGCATTG, AATTTCACGTGTCATT, TAGTGCACGTGACGTA, GATTGCACGTGTAAGG

Relative binding free energy, 0.29 kcal/mol:
CTTTGCACGTGAATGG, CATTTCACGTGTTTCT, GGTATCACGTGGAGAT

Relative binding free energy, -0.06 kcal/mol:
GTACACACGTGGGTGT, GGATACACGTGGTATG, ATGGGCACGTGTAAGG

Relative binding free energy, -0.07 kcal/mol:
GTTGACACGTGCGTGT, GTATGCACGTGCGTGC

Relative binding free energy, 0.06 kcal/mol:
AAAAGCACGTGTGTAG, TTAAGCACGTGACGGT, GTTCACACGTGGGTTG, GTGGTCACGTGGGTTC

Relative binding free energy, 0.13 kcal/mol:
GGATACACGTGCTTGG, ATGTCCACGTGTAATG, TAGATCACGTGGGTTC, TATCTCACGTGTTATT, TTGAGCACGTGAGCGG, TGTAGCACGTGTAGAT

Relative binding free energy, -0.2 kcal/mol:
AGATGCACGTGCTGTG, TCATACACGTGGGTGT, CGGGGCACGTGGGGCT, ATCGGCACGTGGGGCG, GTGAGCACGTGGGGGA

Relative binding free energy, -0.13 kcal/mol:
ATATGCACGTGGGGCT, GTCGGCACGTGGGCGT

Relative binding free energy, 0.51 kcal/mol:
GAGTTCACGTGAGTTG

Relative binding free energy, -0.01 kcal/mol:
AAATGCACGTGGATTA, CTAGTCACGTGGGGCG

Relative binding free energy, 0.22 kcal/mol:
GGTAGCACGTGAGTAA, TATTTCACGTGTATCT, ATAATCACGTGTGAAG

Relative binding free energy, -0.21 kcal/mol:
TCAGGCACGTGTGGGT

Relative binding free energy, 0.2 kcal/mol:
CGGATCACGTGGTGCT, ATGGACACGTGATTCG, TTGATCACGTGGTCTA, ATTATCACGTGTTGAG

Relative binding free energy, -0.05 kcal/mol:
TATAGCACGTGTGATT, CGGGGCACGTGGTTTT, GCTGGCACGTGGAATG

Relative binding free energy, 0.35 kcal/mol:
TATTTCACGTGATTCT, CGGTTCACGTGCGGGT, GGGGTCACGTGAAGTG

Relative binding free energy, 0.01 kcal/mol:
AGTGTCACGTGCAGAT, TAGGGCACGTGTTGAA, TATGACACGTGTTGGA, TTCTGCACGTGTTACG, AGGTACACGTGTGTGC

Relative binding free energy, 0.39 kcal/mol:
AGGTTCACGTGAGATT, TTGGACACGTGAAGGA

Relative binding free energy, -0.16 kcal/mol:
TGTGCCACGTGCTGTG, TTATGCACGTGTTACG, GTGAGCACGTGTCAGG

Relative binding free energy, 0.33 kcal/mol:
GTGTTCACGTGCAGTC, GGTAGCACGTGAAGGG, GAATGCACGTGATTAT, AGCTTCACGTGTAAGT

Relative binding free energy, 0.04 kcal/mol:
AGTCTCACGTGGGGCA, GTTCACACGTGTTTGT, CATTGCACGTGCTGTG

Relative binding free energy, 0.07 kcal/mol:
TTTTGCACGTGTGCCA, TCGTACACGTGGTTGT, ATCGTCACGTGCATGT, GTTGTCACGTGGGGCC, AGCGTCACGTGTTTTT, CGCTGCACGTGATGTT

Relative binding free energy, 0.12 kcal/mol:
CTTTGCACGTGAGTTA, AGAGACACGTGAAGGT, TCGATCACGTGATGTT, TCTTTCACGTGTTGAG, ATAATCACGTGTTGAG, GTTTACACGTGGGTTA

Relative binding free energy, 0.44 kcal/mol:
GCGTTCACGTGAGTAG, CGGGACACGTGAGGTC

Relative binding free energy, -0.12 kcal/mol:
GTTGGCACGTGGTCTC, ATGGACACGTGGGAGG, GGCGACACGTGGGGTA, CTTGCCACGTGCGGGG, TGGGGCACGTGGGGTT

Relative binding free energy, 0.43 kcal/mol:
TGTATCACGTGAAGGG

Relative binding free energy, 0.26 kcal/mol:
TAGGTCACGTGAGTTG

Relative binding free energy, 0.08 kcal/mol:
TTAGTCACGTGTACGG, TAAGTCACGTGGATCT, TGTATCACGTGGTATC, TGGAGCACGTGACGGC, TGTGCCACGTGAAGGA

Relative binding free energy, -0.1 kcal/mol:
GATGGCACGTGGGTCC, TGAGCCACGTGCGTTG, TGGTCCACGTGGGAGC

Relative binding free energy, -0.19 kcal/mol:
GGGGGCACGTGGTCCT, TGAGGCACGTGGCGAG, AGGAACACGTGCGTGG, CTATGCACGTGGGAGG

Relative binding free energy, -0.3 kcal/mol:
AGGGGCACGTGGTTAC

Relative binding free energy, 0.45 kcal/mol:
GGGTTCACGTGTCCAG

Relative binding free energy, 0.1 kcal/mol:
TAACGCACGTGATTTG

Relative binding free energy, 0.18 kcal/mol:
AGGTTCACGTGATTCT, TGTTACACGTGTGACA, GGGGTCACGTGGTTGC

Relative binding free energy, -0.04 kcal/mol:
CATGGCACGTGTGGCT, GTAGCCACGTGCGGGT, CGCTACACGTGGGGGT, TGTAGCACGTGGATAT

Relative binding free energy, 0.19 kcal/mol:
ACATTCACGTGTTGGG

Relative binding free energy, 0.27 kcal/mol:
TGTTTCACGTGTCTGA

Relative binding free energy, 0.38 kcal/mol:
GGCGTCACGTGAAGGT, GTATTCACGTGATTCG, TTCTTCACGTGTGTAG

Relative binding free energy, -0.09 kcal/mol:
TGTGACACGTGGGGAG, GGGCACACGTGGCGTG, AGTGGCACGTGTGAGA, TAGAGCACGTGATAGT

Relative binding free energy, 0.17 kcal/mol:
TCGTTCACGTGGTTAG, GTGCTCACGTGCTGGG, TTGGTCACGTGTTTTG

Relative binding free energy, -0.27 kcal/mol:
TGGGGCACGTGGGTAT, TAGGGCACGTGGGTAG

Relative binding free energy, -0.08 kcal/mol:
ATTAGCACGTGCTGAT, GAGGTCACGTGGGCTA, AGTCTCACGTGGGTGT, TGTGTCACGTGGGTTC, TGTGACACGTGTGGTC, TAGCGCACGTGTAAGG, CGTACCACGTGTGTGT

Relative binding free energy, 0.02 kcal/mol:
TCATGCACGTGGATGG, AGGTCCACGTGTTTTG, TGGTCCACGTGCTATG, GTGGCCACGTGGTGGC
